From PubChem BioAssay AID1963576 (National Center for Advancing Translational Sciences (NCATS), 2024)
Out of some 46,000 compounds screened, about 60 (0.1%) were called active. Not shown: some 3% with an inconclusive outcome. Calls follow the shape of the dose curve; as a rule, active = well fitted inhibition curve with a large enough effect; inconclusive = small, poorly fitted or top-dose-only effect; inactive = no such curve, though single readings can be large or run the other way. The list shows a part of the results.

experiment: Primary qHTS assay for Inhibitors of ovarian cancer metastasis using an organotypic tumor microenvironment (TME) model.; also: nearly all actives have a fitted effect of over 65% in size;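 as to Potency: count of GFP cancer cells still attached after washing and fixation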;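 as to activity change, negative = inhibition: plate controls were DMSO wells for no effect and tomatine positive control wells for full effect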; conditions: SKOV3ip1-GFP adhesion/invasion on 3D omental model, fluorescence; series mostly up to 45.8 µM; activity change, negative = inhibition: at the top concentration
Outline: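 Primary human omental fibroblast/mesothelial 3D culture pre-formed 48 h. SKOV3ip1-GFP cells added with compounds (0.36-46 umol/L), incubated 2 h RT/16 h 37 C, fixed; GFP cells quantified at 488/509 nm.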
Potency is read from the fitted curve at half-maximal effect.

SMILES | outcome | activity change, negative = inhibition | Potency
O=C(Oc1ccc(Cl)cc1)c1cc(-c2ccc3c(c2)OCCO3)on1 | inactive | – | –
O=C(Cn1c(=O)oc2cc(S(=O)(=O)N3CCCCC3)ccc21)NCc1ccc(Cl)cc1 | – | inactive: 1.49% | –
CCCCn1c(=NC(=O)c2cc3ccccc3o2)c(C(=O)OCC)cc2c(=O)n3ccccc3nc21 | – | inactive: -0.263% | –
CCn1c(=O)c2cc(C(=O)NCCCN3CCC(C)CC3)sc2c2ccccc21 | – | inactive: -20.7% | –
Cc1cccc(N2CCN(S(=O)(=O)c3ccc4c(c3)CC(=O)N4C)CC2)c1C | – | inactive: 3.24% | –
COc1ccc(Cn2ccnc2SCC(=O)NCc2ccco2)cc1 | – | inactive: -7.35% | –
CCN(CC)CCNC(=O)Cn1nc(C)c2c(C)n(-c3ccccc3)nc2c1=O | – | inactive: 0.951% | –
Cc1ccc(Cl)cc1NC(=O)CSc1nc2ccccc2nc1Cc1ccccc1 | inactive | – | –
COc1cccc(-c2noc(COc3ccccc3Cl)n2)c1 | – | inactive: 3.65% | –
CCN(C(=O)c1sc2nc3n(c(=O)c2c1C)CCCCC3)c1ccc(OC)cc1 | – | inactive: 9.8% | –
COc1ccc(C)cc1NC(=O)NC(C)c1c(-n2cccc2)sc(C)c1C (stereo not drawn) | inactive | – | –
CCOC(=O)c1c(C)[nH]c(CCC(=O)NC(C)c2ccccc2)c1C (stereo not drawn) | – | inactive: -8.44% | –
O=C(C1CCCN(S(=O)(=O)c2ccc(Br)s2)C1)N1CCN(c2ccccc2F)CC1 (stereo not drawn) | – | inactive: -4.33% | –
Fc1ccc(Nc2ncnc3onc(-c4ccc(Cl)cc4)c23)cc1Cl | – | inactive: 9.88% | –
CCOC(=O)c1cn(CC(=O)Nc2ccc(OC)cc2OC)nn1 | – | inactive: -6.83% | –
CC(C)Cc1ccc(S(=O)(=O)N2CCN(Cc3noc(CCC(=O)N4CCCCC4)n3)CC2)cc1 | inactive | – | –
Cc1c(C(=O)Nc2ccc(-n3c(C)nc4ccccc4c3=O)cc2)cccc1[N+](=O)[O-] | inactive | – | –
CC1=C(c2ccc(F)cc2)S(=O)(=O)N=C1N1CCC(C(=O)NCCc2ccccc2C)CC1 | – | inactive: -4.77% | –
COc1ccc(C2C(C(=O)Nc3ccccc3)=C(C)Nc3nc(SCC(=O)c4ccc(C)cc4)nn32)cc1 (stereo not drawn) | – | inactive: 0.207% | –
O=C(CCN1CCN(C(=O)OCc2cc(Cl)cc(Cl)c2)CC1)c1ccc2[nH]c(=O)oc2c1 | – | inactive: -3.67% | –
COC(=O)C(NC(=O)CCc1c(C)nc2c(-c3ccccc3)c(C)nn2c1C)C(C)C (stereo not drawn) | inactive | – | –
Cc1ccc(Cl)cc1NC(=O)Cn1c(=O)n(CCC(=O)NCc2ccc3c(c2)OCO3)c(=O)c2sccc21 | inactive | – | –
Cc1cc2nn(-c3ccc(F)cc3)nc2cc1NC(=O)c1cccc2c(Cl)cccc12 | – | inactive: 1.76% | –
Cc1cc(C)nc(-n2nc(C)c3c2NC(=O)CC3c2cccc(O)c2)n1 (stereo not drawn) | – | inactive: 3.03% | –

SMILES | outcome | activity change, negative = inhibition | Potency
CCOc1cc2c(cc1OCC)C(CC(=O)O)N(C(=O)Nc1ccccc1C(F)(F)F)CC2 (stereo not drawn) | inactive | – | –
CCn1c(C)c(C)c2cc(C(=O)NCc3ccc(F)cc3)ccc21 | – | inactive: -9.05% | –
COc1ccc(-n2cc(-c3ccccc3)c3c(Nc4ccc(OC)c(OC)c4)ncnc32)cc1 | – | inactive: -5.67% | –
COc1cc(OC)c(NC(=O)Nc2cccc(OCc3cc(=O)n4ccccc4n3)c2)cc1Cl | – | inactive: 11.6% | –
CCOC(=O)c1ccc2c(c1)N(Cc1ccc(F)cc1Cl)C(=O)c1ccccc1S2(=O)=O | – | inactive: 3.82% | –
COc1ccc(-c2oc3c(CC=C(C)C)c(O)cc(O)c3c(=O)c2O)cc1 | – | inactive: 5.53% | –
Cc1ccc(CNC(=O)c2nc(SCc3ccccc3C)ncc2Cl)cc1 | inactive | – | –
CCC(=O)N1CCc2cc(Br)cc(S(=O)(=O)N3CCN(c4ccccc4OC)CC3)c21 | inactive | – | –
CCOC(=O)CC(=O)CSc1nc2ccsc2c(=O)n1Cc1ccccc1 | – | inactive: -1.38% | –
Cc1noc(-c2ccc(NC(C)c3ccccc3)c([N+](=O)[O-])c2)n1 (stereo not drawn) | inactive | – | –
COc1ccccc1NC(=O)c1ccc(CN2C(=O)C(C)=C(c3ccc(C)c(C)c3)S2(=O)=O)cc1 | – | inactive: 0.319% | –
O=C1C(Cl)=C(NCCN2CCOCC2)C(=O)c2ncccc21 | – | – | active: 5.9 µM
CC1(c2ccccc2)CC(C)(C)N(C(=O)c2cccc(Cl)c2)c2ccccc21 (stereo not drawn) | – | inactive: 6.96% | –
Cc1ccc(CCNS(=O)(=O)c2c(C)nc3sc(C)c(C)n3c2=O)cc1 | – | inactive: -9.54% | –
Cc1cc(C)cc(-n2c(SCC(=O)N3CCOCC3)nc3c([nH]c4ccccc43)c2=O)c1 | – | inactive: 6.33% | –
Cc1ccc(CNC(=O)c2ccc(CSCc3cccc(C)c3)o2)cc1 | inactive | – | –
CC1CCN(S(=O)(=O)c2ccc3c(c2)N(CC(=O)NCCc2ccccc2)C(=O)CO3)CC1 | inactive | – | –
COc1cccc(NC(=O)c2ccc3c(c2)CCN3S(C)(=O)=O)c1 | inactive | – | –
O=C1C(=O)N(C2CCN(C(=O)c3ccccc3Cl)CC2)CCN1Cc1ccc(F)cc1 | inactive | – | –
COc1cc(=C2C=c3ccccc3=N2)[nH]c1=Cc1[nH]c(C)cc1C | – | inactive: -18.3% | –
Cc1ccc(NS(=O)(=O)c2ccc3[nH]c4c(c3c2)CCCC4)cc1N(C)C | – | inactive: -20.2% | –
Cc1nc2ccn(Cc3cccs3)c(=O)c2cc1C(=O)N1CCN(c2ccccc2F)CC1 | – | inactive: -3.96% | –
Cc1nc2nc(NCc3ccc(Cl)cc3)[nH]n2c(=O)c1Cc1ccccc1 | – | inactive: 21.6% | –
COc1ccccc1CNC(=O)CCS(=O)(=O)c1ccc2c(c1)CCN2C(C)=O | – | inactive: -6.57% | –
